Assay results published in patent US20250381289A1 (Genmab, published 2025).

Tests used:
[1] = target: T1, EGFR on EGFR and cMET co-expressed tumor cell lines (UniProt P00533); experiment: flow cytometry, EBC-1 cells (co-express EGFR and cMET; both arms contribute)
T1 construct: whole, on cells

[2] = target: T2, cMET on EGFR and cMET co-expressed tumor cell lines (UniProt P08581); experiment: as above
T2 construct: whole, on cells
T2 sequence (P08581 25-1390 limits assumed): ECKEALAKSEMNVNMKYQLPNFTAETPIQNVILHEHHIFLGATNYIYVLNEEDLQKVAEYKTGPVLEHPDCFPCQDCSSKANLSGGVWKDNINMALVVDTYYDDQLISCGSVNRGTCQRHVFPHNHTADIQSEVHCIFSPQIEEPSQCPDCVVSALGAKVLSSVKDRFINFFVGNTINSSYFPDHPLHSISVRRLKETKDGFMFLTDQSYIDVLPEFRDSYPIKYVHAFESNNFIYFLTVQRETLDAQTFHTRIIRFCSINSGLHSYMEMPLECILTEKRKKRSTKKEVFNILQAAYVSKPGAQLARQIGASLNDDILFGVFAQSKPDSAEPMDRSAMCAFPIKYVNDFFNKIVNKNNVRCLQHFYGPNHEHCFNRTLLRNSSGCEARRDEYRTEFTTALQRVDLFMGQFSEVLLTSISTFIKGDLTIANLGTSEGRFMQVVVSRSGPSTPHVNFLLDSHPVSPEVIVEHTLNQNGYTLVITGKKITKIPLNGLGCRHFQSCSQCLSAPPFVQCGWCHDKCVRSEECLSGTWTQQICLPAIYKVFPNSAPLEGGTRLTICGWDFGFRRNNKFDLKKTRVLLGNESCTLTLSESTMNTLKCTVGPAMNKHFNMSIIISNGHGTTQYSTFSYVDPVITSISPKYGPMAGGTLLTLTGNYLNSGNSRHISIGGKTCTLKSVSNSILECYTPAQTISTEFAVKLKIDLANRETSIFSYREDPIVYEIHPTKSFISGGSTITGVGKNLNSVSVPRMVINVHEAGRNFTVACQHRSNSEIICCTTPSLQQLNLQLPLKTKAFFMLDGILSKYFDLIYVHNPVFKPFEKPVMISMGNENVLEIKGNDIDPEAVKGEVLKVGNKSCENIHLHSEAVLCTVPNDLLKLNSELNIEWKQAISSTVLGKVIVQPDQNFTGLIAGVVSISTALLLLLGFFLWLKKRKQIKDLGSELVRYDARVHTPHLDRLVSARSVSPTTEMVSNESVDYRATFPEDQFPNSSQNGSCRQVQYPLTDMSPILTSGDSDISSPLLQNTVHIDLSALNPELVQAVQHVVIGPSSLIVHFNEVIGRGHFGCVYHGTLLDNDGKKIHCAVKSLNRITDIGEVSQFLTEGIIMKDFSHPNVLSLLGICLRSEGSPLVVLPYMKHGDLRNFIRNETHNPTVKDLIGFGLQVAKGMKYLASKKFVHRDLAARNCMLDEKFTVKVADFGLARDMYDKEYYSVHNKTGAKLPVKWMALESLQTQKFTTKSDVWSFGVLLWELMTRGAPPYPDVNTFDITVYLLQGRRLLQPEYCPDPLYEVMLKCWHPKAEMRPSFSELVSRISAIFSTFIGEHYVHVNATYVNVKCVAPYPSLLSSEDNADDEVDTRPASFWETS

B1: Bsab 68 WT (bispecific antibody, human IgG1)
chain 1: QVQLVESGGGVVQPGRSLRLSCAASGFTFSTYGMHWVREAPGKDLEWVAVIWDDGSYKYYGDSVKGRFTISRDNSKNTLYLQMNSLRAEDTAVYYCARDGITMVRGVMKDYFDYWGQGTLVTVSSGGGGSGGGGSGGGGSGGGGSAIQLTQSPSSLSASVGDRVTITCRASQDISSALVWYQKKPGKAPKLLIYDASSLESGVPSRFSGSESGTDFTLTISSLQPEDFATYYCQQFNSYPLTFGKGTKVEIKGGGGS[omitted - human IgG1 Fc with changes]
chain 2: QVQLVQSGAEVKKPGASVKVSCKASGYIFTAYTMHWVRQAPGQKLEWMGWIKPNNGLANYAQKFQGRVTMTRDTSISTAYMELSRLRSDDTAVYYCARSEITTEFDYWGQGTLVTVSSGGGGSGGGGSGGGGSGGGGSDIVMTQSPDSLAVSLGERATINCKSSESVDSYANSFLHWYQQKPGQPPKLLIYRASTRESGVPDRFSGSGSGTDFTLTISSLQAEDVAVYYCQQSKEDPLTFGDGTKVEIKGGGGS[omitted - human IgG1 Fc with S354C T366S L368A Y407V (EU numbers)]
notes: also called Basb 68 WT
[1]
  EC50 (read off the curve): ~4 nM
[2]
  EC50 (read off the curve): ~4 nM
